Experimental data: PubChem BioAssay AID886 (National Center for Advancing Translational Sciences (NCATS), 2007)
In all, about 73,000 compounds went through this assay and about 2,500 (3.4%) were called active. This list was built around the results that the source calls inconclusive (neither active nor inactive); the mix of calls is not that of the screen. The call rests on the fitted dose curve; in most records, active means well fitted inhibition curve with a large enough effect; inconclusive means small, poorly fitted or top-dose-only effect; inactive means no such curve, though single readings can be large or run the other way. Potencies beside an inconclusive call are fits to weak or partial responses and may not hold up.

Target: 3-hydroxyacyl-CoA dehydrogenase type-2 (Homo sapiens) (UniProt Q99714)
Assay: qHTS Assay for Inhibitors of HADH2 (Hydroxyacyl-Coenzyme A Dehydrogenase, Type II); further: nearly all actives have a fitted effect of over 60% in size
Conditions: recombinant HADH2, NADH fluorescence, beta-hydroxybutyryl-CoA; activity change, negative = inhibition: at 57.1 µM (top of the series)
Method in brief: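 Buffer 100 mM Tris-HCl pH 9.0/0.01% Tween-20; HADH2 20 nM; NAD+ 1 mM; beta-hydroxybutyryl-CoA 90 uM (all final). 15 min cpd preincubation, RT.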
On the % scale 0 is the no-effect control and ±100 the full control effect; potency means the concentration at half of the fitted maximal effect; tags describe the fitted curve by direction and shape.

Chain of UniProt Q99714 (Q99714 whole entry, looked up): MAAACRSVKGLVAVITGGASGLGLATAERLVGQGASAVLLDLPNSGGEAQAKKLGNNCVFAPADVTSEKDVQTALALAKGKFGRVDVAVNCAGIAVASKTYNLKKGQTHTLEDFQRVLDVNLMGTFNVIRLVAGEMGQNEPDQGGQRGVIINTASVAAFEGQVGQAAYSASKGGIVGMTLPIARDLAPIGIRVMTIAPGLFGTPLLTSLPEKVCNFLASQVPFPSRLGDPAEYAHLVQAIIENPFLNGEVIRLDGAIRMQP
Chain of UniProt Q99714 (Q99714 whole entry, looked up): as above

**Q.** For `CCN(CC)C(=O)c1sc(NC(=O)c2ccoc2C)c(C(=O)OC)c1C`, which Potency is on record?
**A.** inconclusive: 25.1 µM [inhibitor, partial curve]

**Q.** For `CO[C@]1(NC(=O)CSCC#N)C(=O)N2C(C(=O)O)=C(CSc3nnnn3C)CS[C@H]21`, which Potency is on record?
**A.** inconclusive: 15.8 µM [inhibitor, single point]

**Q.** How did the “activity change, negative = inhibition” value turn out when `COC(=O)C1CCN(C(=O)CN2C(=O)NC(CCc3ccccc3)C2=O)CC1` (configuration not stated) was run?
**A.** inactive: 9.31%

**Q.** For `COC(=O)[C@H](C)[C@H]1C[C@]1(C)[C@H](NC(=O)OCc1ccccc1)c1ccccc1`, which Potency is on record?
**A.** inconclusive: 5.01 µM [inhibitor, single point]

**Q.** Which Potency does the source give for `CC(C)Cn1c(N)c(C(=O)NCC2CCCO2)c2nc3ccccc3nc21` (configuration not stated) here?
**A.** inconclusive: 31.6 µM [inhibitor, single point]

**Q.** How did the Potency turn out when `O=C(Nc1nc(-c2ccccc2)cs1)c1ccc(Br)o1` was run?
**A.** inconclusive: 5.01 µM [inhibitor, full curve]

**Q.** `O=[n+]1c2c(n([O-])c3cc(F)ccc31)CCCC2` was tested. Which Potency did it give?
**A.** inconclusive: 3.16 µM [inhibitor, full curve]

**Q.** With `CCCN1CC=C2C(C#N)=C(N)C(C#N)(C#N)C(c3cccc(OC)c3OC)C2C1` (configuration not stated) as the compound, how does the Potency read?
**A.** inconclusive: 25.1 µM [inhibitor, single point]

**Q.** For `CCn1c(C)nc2cc(C(=O)n3cc(C(=O)c4cc(F)ccc4O)cn3)ccc21`, which “activity change, negative = inhibition” value is on record?
**A.** inactive: 7.26%

**Q.** Which Potency does the source give for `COC(=O)CCC(=O)Oc1ccc(OC(=O)CCC(=O)OC)cc1` here?
**A.** inconclusive: 31.6 µM [inhibitor, single point]

**Q.** How did the Potency turn out when `CC1=C(C(=O)OC2CCCC2)C(c2ccc(C)o2)C2=C(CC(c3cccs3)CC2=O)N1` (configuration not stated) was run?
**A.** inconclusive: 39.8 µM [inhibitor, single point]

**Q.** For `COC(=O)CC1=C(C(=O)OC)C(c2cccs2)C(C#N)=C(N)O1` (configuration not stated), which Potency is on record?
**A.** inconclusive: 39.8 µM [inhibitor, single point]

**Q.** For `CC(=O)c1c(C)[nH]c(C(=O)CSc2nnc(C3CCCCC3)n2N)c1C`, which Potency is on record?
**A.** inconclusive: 25.1 µM [inhibitor, single point]

**Q.** `C=CCNc1nc(-c2sc(NC(C)=O)nc2C)cs1` was tested. Which Potency did it give?
**A.** inconclusive: 25.1 µM [inhibitor, single point]

**Q.** For `O=C(O)CCC(=O)c1ccc2ccc3cccc4ccc1c2c34`, which Potency is on record?
**A.** inconclusive: 3.98 µM [inhibitor, single point]

**Q.** Which Potency does the source give for `COc1ccc(C2NC3=C(CCCC3)C(C#N)(C#N)C2(C#N)C#N)cc1` (configuration not stated) here?
**A.** inconclusive: 2 µM [inhibitor, partial curve]

**Q.** With `COc1ccc(-c2cc(C(F)(F)F)nc(SCC(=O)N3CC(C)OC(C)C3)n2)cc1OC` (configuration not stated) as the compound, how does the Potency read?
**A.** inconclusive: 39.8 µM [inhibitor, single point]

**Q.** `COc1ccc(-c2cc(-c3cccs3)c(C#N)c(SCC(=O)NCc3ccco3)n2)cc1` was tested. Which Potency did it give?
**A.** active: 15.8 µM

**Q.** How did the Potency turn out when `CSc1ccc(/C=N/n2nnnc2N)cc1` was run?
**A.** active: 31.6 µM

**Q.** For `CN1C(=O)c2ccccc2N(C)C1c1ccc2c(c1)OCO2` (configuration not stated), which Potency is on record?
**A.** active: 31.6 µM

**Q.** For `CCOc1nc(-c2ccc(OC)cc2)ccc1-c1noc(-c2cc(OC)c(OC)c(OC)c2)n1`, which Potency is on record?
**A.** inconclusive: 31.6 µM [inhibitor, single point]

**Q.** `CC1=C(C(=O)OCCOC(C)C)C(c2cccnc2)C2=C(CCCC2=O)N1` (configuration not stated) was tested. Which Potency did it give?
**A.** active: 31.6 µM

**Q.** With `C[C@H](Br)C(=O)c1ccc2cc(Br)c3ccccc3c2c1` as the compound, how does the activity change, negative = inhibition read?
**A.** inactive: -9.43% [at 11.4 µM]

**Q.** For `Nc1nc2nonc2nc1N1CCCCC1`, which Potency is on record?
**A.** active: 25.1 µM

**Q.** For `Cc1ccc2[nH]c3c(NCc4ccco4)ncnc3c2c1`, which Potency is on record?
**A.** active: 25.1 µM

**Q.** With `CCn1c(-c2ccc(OC)c(OC)c2)n[nH]c1=S` as the compound, how does the Potency read?
**A.** inconclusive: 31.6 µM [inhibitor, single point]

**Q.** `O=C(OCC(=O)c1ccc[nH]1)c1ccc(S(=O)(=O)N2CCCCC2)cc1` was tested. Which “activity change, negative = inhibition” value did it give?
**A.** inactive: 5.93%

**Q.** With `Nc1cc(N)c(OCC(F)(F)F)cc1OCC(F)(F)F` as the compound, how does the Potency read?
**A.** active: 2.51 µM

**Q.** For `Cc1cc(C)nc(Nc2nc(=O)c3ccccc3s2)n1`, which Potency is on record?
**A.** inconclusive: 10 µM [inhibitor, partial curve]

**Q.** `Cc1ccc(CNc2ncc(-c3ccc4c(c3)OCO4)n2C)cc1` was tested. Which Potency did it give?
**A.** inconclusive: 31.6 µM [inhibitor, single point]

**Q.** How did the Potency turn out when `COC(=O)C1=C(C)N(CCC2=CCCCC2)C(=O)C1` was run?
**A.** inconclusive: 25.1 µM [inhibitor, single point]

**Q.** With `N#Cc1c(NC(=O)CSc2ncnc3sccc23)oc(-c2ccco2)c1-c1ccco1` as the compound, how does the Potency read?
**A.** active: 15.8 µM

**Q.** For `COc1ccccc1-c1nc(C#N)c(N2CCN(c3cccc(Cl)c3)CC2)o1`, which Potency is on record?
**A.** active: 31.6 µM

**Q.** Which Potency does the source give for `Oc1ccc2ccccc2c1C=NCc1cn2ccsc2n1` here?
**A.** inconclusive: 7.94 µM [inhibitor, full curve]

**Q.** How did the Potency turn out when `COc1ccccc1N1CCN(Cc2cc(Br)c(O)c3ncccc23)CC1` was run?
**A.** inconclusive: 25.1 µM [inhibitor, partial curve]

**Q.** Which Potency does the source give for `CCCCc1ccc(C2C(C#N)=C(N)SC(N)=C2C#N)s1` here?
**A.** active: 0.316 µM

**Q.** Which “activity change, negative = inhibition” value does the source give for `COC(=O)c1ccc2c(=O)n(CCO)c(=S)[nH]c2c1` here?
**A.** inactive: -6.31%

**Q.** `CN(CCO)C(=O)CCC(=O)Nc1ccc(S(N)(=O)=O)cc1` was tested. Which “activity change, negative = inhibition” value did it give?
**A.** inactive: 6.41%

**Q.** With `Cc1ccc(CNC(=O)c2cc3c(-c4ccc(Cl)cc4)nn(C)c3s2)o1` as the compound, how does the Potency read?
**A.** inconclusive: 39.8 µM [inhibitor, single point]

**Q.** Which Potency does the source give for `NC(=S)c1ccc[n+]([C@@H]2O[C@@H](COP(=O)([O-])OP(=O)(O)OC[C@@H]3O[C@@H](n4cnc5c(N)ncnc54)[C@@H](OP(=O)(O)O)[C@H]3O)[C@@H](O)[C@H]2O)c1` here?
**A.** inconclusive: 25.1 µM [inhibitor, partial curve]

**Q.** For `CCn1c(=S)sc2nc(C)sc21`, which Potency is on record?
**A.** active: 3.16 µM

**Q.** With `CCc1nc(SCC(=O)Nc2nccs2)c2oc3ccccc3c2n1` as the compound, how does the Potency read?
**A.** inconclusive: 39.8 µM [inhibitor, single point]

**Q.** With `Cc1ccc(-c2cc(C(=O)NCCCn3ccnc3)c3cc(Br)ccc3n2)o1` as the compound, how does the “activity change, negative = inhibition” value read?
**A.** inactive: -2.07%

**Q.** With `Cc1nc(N2CCOCC2)c2nc(-c3ccccc3)n(CCCN(C)C)c2n1` as the compound, how does the Potency read?
**A.** inconclusive: 31.6 µM [inhibitor, single point]

**Q.** How did the Potency turn out when `CCc1ccc(S(=O)(=O)c2n[nH]n3c2nc(=O)c2ccccc23)cc1` was run?
**A.** active: 25.1 µM

**Q.** `CS(=O)(=O)Nc1ccc(N2CCCCC2)c(Cl)c1` was tested. Which “activity change, negative = inhibition” value did it give?
**A.** inactive: -5.32%

**Q.** How did the Potency turn out when `COc1ccc2nc(NC(=O)c3cccc(OCc4c(C)noc4C)c3)sc2c1` was run?
**A.** inconclusive: 31.6 µM [inhibitor, single point]

**Q.** For `COc1ccc(-c2nc(NC(=O)CSc3nnc(C)s3)ns2)cc1`, which Potency is on record?
**A.** active: 39.8 µM

**Q.** With `CCOC(=O)C1=C(C)NC(=O)NC1c1cc(C)sc1C` (configuration not stated) as the compound, how does the Potency read?
**A.** inconclusive: 39.8 µM [inhibitor, single point]

**Q.** For `O=C(c1csc2c1CCCC2)n1cccn1`, which Potency is on record?
**A.** inconclusive: 39.8 µM [inhibitor, single point]

**Q.** For `CN1c2cccc3cccc(c23)N(C)C1(C)C`, which Potency is on record?
**A.** active: 25.1 µM

**Q.** `O=C1NC(c2ccc3c(c2)OCO3)Nc2ccccc21` (configuration not stated) was tested. Which Potency did it give?
**A.** inconclusive: 39.8 µM [inhibitor, single point]

**Q.** Which Potency does the source give for `Cc1nn2c(N3CCCC3)cc(C(C)C)nc2c1-c1ccccc1` here?
**A.** inconclusive: 31.6 µM [inhibitor, single point]

**Q.** Which Potency does the source give for `COC(=O)CSc1nc2c(c(-c3ccc(C)o3)c1C#N)CCCC2` here?
**A.** inconclusive: 39.8 µM [inhibitor, single point]

**Q.** `CCOc1cc(S(=O)(=O)NC2CCCCCC2)ccc1F` was tested. Which Potency did it give?
**A.** inconclusive: 31.6 µM [inhibitor, single point]

**Q.** With `O=C(Nc1nnc(-c2ccccc2Cl)o1)c1ccco1` as the compound, how does the “activity change, negative = inhibition” value read?
**A.** inactive: -1.06%

**Q.** `NS(=O)(=O)c1ccc(S(=O)(=O)NCCc2ccccc2)cc1` was tested. Which Potency did it give?
**A.** inconclusive: 31.6 µM [inhibitor, single point]

**Q.** With `CCOC(=O)C1CCN(c2c(NC3CCCc4ccccc43)c(=O)c2=O)CC1` (configuration not stated) as the compound, how does the “activity change, negative = inhibition” value read?
**A.** inactive: -5.14%

**Q.** Which Potency does the source give for `Cc1noc(C)c1-c1cncnc1Nc1ccccc1` here?
**A.** inconclusive: 39.8 µM [inhibitor, single point]

**Q.** With `O=C(Nc1cccc(C(F)(F)F)c1)N1CCC(c2nc(-c3ccc(F)cc3)no2)CC1` as the compound, how does the “activity change, negative = inhibition” value read?
**A.** inactive: -2.54%

**Q.** `CCOC(=O)c1c(C)n(OCc2ccccc2)c2ccc3nonc3c12` was tested. Which Potency did it give?
**A.** active: 25.1 µM

**Q.** Which Potency does the source give for `CCn1c(SCC(=O)N2CCN(c3ccc(Cl)cc3)CC2)nc2ccccc2c1=O` here?
**A.** inconclusive: 0.02 µM [inhibitor, full curve, poor fit]

**Q.** Which “activity change, negative = inhibition” value does the source give for `CC(=O)Oc1cc(C(F)(F)F)ccc1C(=O)O` here?
**A.** inactive: -22.3% [at 25.6 µM]

**Q.** How did the Potency turn out when `CN1C(=O)NC(NC(=O)c2ccncc2)(C(F)(F)F)C1=O` (configuration not stated) was run?
**A.** inconclusive: 1.58 µM [inhibitor, single point]

**Q.** How did the Potency turn out when `O=c1oc2ccccc2cc1-c1cn2cccnc2n1` was run?
**A.** inconclusive: 12.6 µM [inhibitor, partial curve]

**Q.** For `COc1ccc(-n2nnnc2Sc2ccc(S(=O)(=O)N3CCOCC3)cn2)cc1`, which Potency is on record?
**A.** inconclusive: 5.01 µM [inhibitor, full curve]

**Q.** Which activity change, negative = inhibition does the source give for `Cc1cc(N2CCOCC2)nc(NCc2ccccc2)n1` here?
**A.** inactive: 0.166% [at 11.4 µM]

**Q.** With `O=C1C2=CC[C@H]3C(=O)N(Cc4ccc5c(c4)OCO5)C(=O)[C@@H]3[C@@H]2[C@H](O)[C@@H]2O[C@H]12` as the compound, how does the activity change, negative = inhibition read?
**A.** inactive: -18.4% [at 11.4 µM]

**Q.** `COc1cccc(-c2cncnc2Nc2ccc(F)cc2)c1` was tested. Which Potency did it give?
**A.** inconclusive: 39.8 µM [inhibitor, single point]

**Q.** How did the Potency turn out when `CCOC(=O)C(C)Oc1ccc(C2NC(=O)NC(C)=C2C(=O)Nc2ccccc2C)cc1` (configuration not stated) was run?
**A.** inconclusive: 31.6 µM [inhibitor, single point]

**Q.** `COc1ccc(CNc2nc(-c3cccnc3)nc3ccccc23)c(OC)c1` was tested. Which Potency did it give?
**A.** inconclusive: 39.8 µM [inhibitor, single point]

**Q.** For `CCC(C)[C@@H](NC(=O)OC(C)(C)C)c1nnc(S(=O)(=O)Cc2cccc(C)c2)o1` (some centres not stated), which Potency is on record?
**A.** active: 2.51 µM
